The values below come from article PMC9797339.

The chains behind the UniProt entries cited, without tags or fusion partners. Where a name states a change or a piece, a line headed by the entry shows the natural chain unless it says otherwise. Residues count along the entry.
UniProt O43791: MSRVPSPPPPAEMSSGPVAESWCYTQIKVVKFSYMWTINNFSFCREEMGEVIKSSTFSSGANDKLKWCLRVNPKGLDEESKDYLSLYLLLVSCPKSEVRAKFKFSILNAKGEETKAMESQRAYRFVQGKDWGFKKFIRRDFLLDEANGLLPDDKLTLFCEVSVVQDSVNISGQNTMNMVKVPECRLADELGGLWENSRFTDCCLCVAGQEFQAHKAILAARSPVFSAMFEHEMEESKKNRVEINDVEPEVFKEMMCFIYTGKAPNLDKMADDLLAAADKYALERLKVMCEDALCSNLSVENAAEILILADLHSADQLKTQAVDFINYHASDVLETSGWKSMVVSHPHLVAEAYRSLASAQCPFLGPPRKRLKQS
UniProt Q9NZQ7: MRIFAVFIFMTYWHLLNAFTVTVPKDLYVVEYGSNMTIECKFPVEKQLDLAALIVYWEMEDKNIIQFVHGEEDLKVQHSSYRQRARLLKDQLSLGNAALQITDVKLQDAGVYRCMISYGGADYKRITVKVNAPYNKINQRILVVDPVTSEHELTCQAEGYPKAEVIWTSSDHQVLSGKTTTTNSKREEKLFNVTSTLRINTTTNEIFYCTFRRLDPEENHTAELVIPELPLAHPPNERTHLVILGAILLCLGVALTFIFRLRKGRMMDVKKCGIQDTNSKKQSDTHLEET
PD-L1-Δ283-290-HA: residues 19-282 of Q9NZQ7

One assay deals with SPOP-Flag (UniProt O43791). Briefly: co-IP; HEK293T cells transfected with SPOP-Flag and PD-L1-HA; lysis buffer 25 mmol/L Tris-base pH 7.4, 150 mmol/L NaCl, 1% NP-40; anti-Flag resins at 4°C overnight; also with canagliflozin for 24 hours, and with SGLT2 silenced or overexpressed.
Assay [1] concerns the target PD-L1-HA (UniProt Q9NZQ7). Briefly: co-IP; HEK293T cells transfected for 24 hours; lysed in 1% Digitonin buffer (50 mmol/L Tris-HCl pH 7.5, 150 mmol/L NaCl); immunoprecipitated with anti-HA, blotted with anti-GFP.
The target in assay [2] is PD-L1-HA (UniProt Q9NZQ7). Briefly: condition: only cells lysed in 0.5% Digitonin/ 1% Triton X-100; co-IP; HEK293T cells transfected with SGLT2-GFP and PD-L1-HA for 24 hours; lysed in 0.5% Digitonin/ 1% Triton X-100; immunoprecipitated with anti-HA, blotted with anti-GFP.
The target in assay [3] is PD-L1-HA (UniProt Q9NZQ7). Briefly: co-IP; cells treated with canagliflozin before the co-immunoprecipitation of SGLT2 and PD-L1 (Figure 2H).
The next assay has as its target PD-L1-Δ283-290-HA (UniProt Q9NZQ7). Briefly: co-IP; HEK293T cells transfected for 24 hours; lysed in 1% Digitonin buffer (50 mmol/L Tris-HCl pH 7.5, 150 mmol/L NaCl); immunoprecipitated with anti-HA, blotted with anti-GFP.

No constants are given. Whether binding was seen depends on the method and setting. In cells and extracts the contact can be indirect. Some results given as binding are weak or reduced against the parent protein; the word gives no strength. For part of these data: Sequences can lack the tags named with a protein.

Regarding PD-L1-HA (from UniProt Q9NZQ7 19-290), the binding result with SPOP-Flag is given as “binds”.

B1: SGLT2-Δ548-650 (protein, UniProt P31639)
chain: MEEHTEAGSAPEMGAQKALIDNPADILVIAAYFLLVIGVGLWSMCRTNRGTVGGYFLAGRSMVWWPVGASLFASNIGSGHFVGLAGTGAASGLAVAGFEWNALFVVLLLGWLFAPVYLTAGVITMPQYLRKRFGGRRIRLYLSVLSLFLYIFTKISVDMFSGAVFIQQALGWNIYASVIALLGITMIYTVTGGLAALMYTDTVQTFVILGGACILMGYAFHEVGGYSGLFDKYLGAATSLTVSEDPAVGNISSFCYRPRPDSYHLLRHPVTGDLPWPALLLGLTIVSGWYWCSDQVIVQRCLAGKSLTHIKAGCILCGYLKLTPMFLMVMPGMISRILYPDEVACVVPEVCRRVCGTEVGCSNIAYPRLVVKLMPNGLRGLMLAVMLAALMSSLASIFNSSSTLFTMDIYTRLRPRAGDRELLLVGRLWVVFIVVVSVAWLPVVQAAQGGQLFDYIQAVSSYLAPPVSAVFVLALFVPRVNEQGAFWGLIGGLLMGLARLIPEFSFGSGSCVQPSACPAFLCGVHYLYFAIVLFFCSGLLTLTVSLCRVVNLNALLMMAVAVFLWGFYA
For B1, the binding result in the assay with PD-L1-HA [1] is listed as “no binding”.

B2: SGLT2-GFP (protein, UniProt P31639 1-672)
chain: MEEHTEAGSAPEMGAQKALIDNPADILVIAAYFLLVIGVGLWSMCRTNRGTVGGYFLAGRSMVWWPVGASLFASNIGSGHFVGLAGTGAASGLAVAGFEWNALFVVLLLGWLFAPVYLTAGVITMPQYLRKRFGGRRIRLYLSVLSLFLYIFTKISVDMFSGAVFIQQALGWNIYASVIALLGITMIYTVTGGLAALMYTDTVQTFVILGGACILMGYAFHEVGGYSGLFDKYLGAATSLTVSEDPAVGNISSFCYRPRPDSYHLLRHPVTGDLPWPALLLGLTIVSGWYWCSDQVIVQRCLAGKSLTHIKAGCILCGYLKLTPMFLMVMPGMISRILYPDEVACVVPEVCRRVCGTEVGCSNIAYPRLVVKLMPNGLRGLMLAVMLAALMSSLASIFNSSSTLFTMDIYTRLRPRAGDRELLLVGRLWVVFIVVVSVAWLPVVQAAQGGQLFDYIQAVSSYLAPPVSAVFVLALFVPRVNEQGAFWGLIGGLLMGLARLIPEFSFGSGSCVQPSACPAFLCGVHYLYFAIVLFFCSGLLTLTVSLCTAPIPRKHLHRLVFSLRHSKEEREDLDADEQQGSSLPVQNGCPESAMEMNEPQAPAPSLFRQCLLWFCGMSRGGVGSPPPLTQEEAAAAARRLEDISEDPSWARVVNLNALLMMAVAVFLWGFYA
With B2, the binding entry with PD-L1-HA [2] is on record as “no binding”; with PD-L1-HA [3], “no binding (condition: cells treated with canagliflozin)”; with PD-L1-HA [1] it was “binds”; with PD-L1-Δ283-290-HA, “no binding”.
